{"source": "the supplement of paper PMC3334620", "note": "In all, about 33,000 sequences were measured (“E-score (-0.5 to 0.5)”: median about -0.035, highest 2% from about 0.34 on). This is one part of the list.", "data": [{"target": "T1, Mot3 (UniProt P54785)", "T1 sequence": "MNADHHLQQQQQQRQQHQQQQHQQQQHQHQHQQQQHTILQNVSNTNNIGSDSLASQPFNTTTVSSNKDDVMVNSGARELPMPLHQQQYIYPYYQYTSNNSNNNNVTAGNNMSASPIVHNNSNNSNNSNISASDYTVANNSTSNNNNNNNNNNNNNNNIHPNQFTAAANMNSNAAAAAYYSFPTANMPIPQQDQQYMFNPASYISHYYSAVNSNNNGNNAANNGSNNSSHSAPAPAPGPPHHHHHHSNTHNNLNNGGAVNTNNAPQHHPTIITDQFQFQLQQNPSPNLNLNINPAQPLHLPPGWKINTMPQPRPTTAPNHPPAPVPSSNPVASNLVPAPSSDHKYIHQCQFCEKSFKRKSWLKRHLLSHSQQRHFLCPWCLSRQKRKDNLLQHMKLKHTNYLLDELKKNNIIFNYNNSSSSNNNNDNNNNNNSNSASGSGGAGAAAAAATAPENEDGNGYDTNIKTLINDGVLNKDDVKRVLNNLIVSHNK", "assay": "PBM E-score (8-mer binding enrichment) (E-score (-0.5 to 0.5)); higher = stronger / more preferred TF binding; most listed sequences are background and not binding sites", "settings": "protein concentration: 200 nM; construct: GST-full length", "procedure": "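Universal 'all 10-mer' protein binding microarrays (Agilent AMADID 015681) probed with GST-tagged S. cerevisiae TFs (full-length or DBD) made by in vitro transcription/translation (PURExpress), about 100-200 nM. Bound TF was detected with fluorescent anti-GST. Each ungapped 8-mer (which stands for itself and its reverse complement) is scored by the PBM enrichment score (E-score), a modified Wilcoxon-Mann-Whitney statistic from -0.5 to +0.5, computed with the Universal PBM Analysis Suite. Scale: above 0.35 generally sequence-specific binding.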", "values": [{"sequence": "AGTCTACC", "PBM E-score": -0.233}, {"sequence": "GCTCCGCC", "PBM E-score": -0.238}, {"sequence": "AGGGACCA", "PBM E-score": -0.201}, {"sequence": "GCATAGAC", "PBM E-score": -0.0664}, {"sequence": "AGAAACAT", "PBM E-score": 0.233}, {"sequence": "ACGTTCGG", "PBM E-score": -0.256}, {"sequence": "GCACGAGC", "PBM E-score": -0.142}, {"sequence": "ACCCTGCC", "PBM E-score": -0.333}, {"sequence": "GGCTCGCA", "PBM E-score": -0.0707}, {"sequence": "GATGCGAA", "PBM E-score": -0.142}, {"sequence": "ATGTATCC", "PBM E-score": 0.19}, {"sequence": "GCACAATA", "PBM E-score": 0.0637}, {"sequence": "ATTGGAAG", "PBM E-score": 0.0857}, {"sequence": "ACCTAAGA", "PBM E-score": 0.212}, {"sequence": "CCGATTTA", "PBM E-score": -0.165}, {"sequence": "AGGAATAA", "PBM E-score": 0.105}, {"sequence": "ACAAATCT", "PBM E-score": 0.103}, {"sequence": "ATACCATG", "PBM E-score": -0.0209}, {"sequence": "CAAGACTG", "PBM E-score": 0.0139}, {"sequence": "GATCAAGC", "PBM E-score": 0.0595}, {"sequence": "AGGGGTGG", "PBM E-score": -0.248}, {"sequence": "CGCCTGGC", "PBM E-score": -0.0806}, {"sequence": "ACAAGACG", "PBM E-score": 0.0472}, {"sequence": "GAGCACCA", "PBM E-score": -0.243}, {"sequence": "CACACGTG", "PBM E-score": 0.256}, {"sequence": "CCGCCAAG", "PBM E-score": -0.196}, {"sequence": "CATCCGTA", "PBM E-score": -0.0281}, {"sequence": "AGTAAGGG", "PBM E-score": -0.148}, {"sequence": "ATCTAGTG", "PBM E-score": -0.145}, {"sequence": "TGTCGAAA", "PBM E-score": 0.216}, {"sequence": "CGACTTAA", "PBM E-score": 0.0339}, {"sequence": "CGAACTGC", "PBM E-score": -0.178}, {"sequence": "CTCCTGCC", "PBM E-score": -0.111}, {"sequence": "GGCAATAA", "PBM E-score": 0.227}, {"sequence": "AGAAACTG", "PBM E-score": -0.103}, {"sequence": "GGAAAGCA", "PBM E-score": 0.175}, {"sequence": "CTGGTGAC", "PBM E-score": -0.265}, {"sequence": "CAGATTGA", "PBM E-score": 0.0135}, {"sequence": "CAATAGTG", "PBM E-score": -0.0795}, {"sequence": "GGTGGAGA", "PBM E-score": -0.275}, {"sequence": "CCAACATC", "PBM E-score": 0.0605}, {"sequence": "CTACACCA", "PBM E-score": 0.118}, {"sequence": "ATTCACCA", "PBM E-score": -0.00515}, {"sequence": "CTTGTACA", "PBM E-score": 0.325}, {"sequence": "ACACGTCT", "PBM E-score": 0.286}, {"sequence": "AAACGAGC", "PBM E-score": 0.1}, {"sequence": "AATCTAAG", "PBM E-score": -0.0411}, {"sequence": "TCTTGGCA", "PBM E-score": -0.0135}, {"sequence": "AGTTTAAT", "PBM E-score": 0.0624}, {"sequence": "CCTGAGCC", "PBM E-score": -0.0612}, {"sequence": "ACATGGTC", "PBM E-score": 0.207}, {"sequence": "AAACCGCT", "PBM E-score": -0.106}, {"sequence": "GAAGAGTA", "PBM E-score": 0.109}, {"sequence": "AACGACAG", "PBM E-score": -0.00709}, {"sequence": "GACGCCAA", "PBM E-score": -0.106}, {"sequence": "AAATAGAG", "PBM E-score": 0.103}, {"sequence": "CCAAGCTA", "PBM E-score": -0.132}, {"sequence": "CGGGAACA", "PBM E-score": 0.147}, {"sequence": "ACCAAGCC", "PBM E-score": 0.0544}, {"sequence": "AGTTGTGG", "PBM E-score": 0.0483}, {"sequence": "AAGGCTAC", "PBM E-score": 0.234}, {"sequence": "CGTTCTGC", "PBM E-score": -0.0722}, {"sequence": "ACGTGTGG", "PBM E-score": 0.0951}, {"sequence": "CTCGGCAC", "PBM E-score": -0.181}, {"sequence": "TAGCCGGA", "PBM E-score": -0.292}, {"sequence": "GGGCAAAC", "PBM E-score": 0.0101}, {"sequence": "CCCAGAAA", "PBM E-score": 0.0712}, {"sequence": "TCATACCA", "PBM E-score": -0.0345}, {"sequence": "ACAGGATA", "PBM E-score": 0.153}, {"sequence": "AGATTGAA", "PBM E-score": 0.0943}, {"sequence": "TCTCCGAA", "PBM E-score": -0.0332}, {"sequence": "AACATACC", "PBM E-score": 0.255}, {"sequence": "ATACCTCC", "PBM E-score": -0.153}, {"sequence": "ACGCTCCA", "PBM E-score": 0.0237}, {"sequence": "CCCGCCCG", "PBM E-score": -0.0534}, {"sequence": "ACCTCCCC", "PBM E-score": -0.0577}, {"sequence": "GCGGTAAA", "PBM E-score": 0.135}, {"sequence": "GATATCAA", "PBM E-score": -0.00647}, {"sequence": "GAACTGCA", "PBM E-score": -0.0979}, {"sequence": "GACTCCAA", "PBM E-score": -0.159}, {"sequence": "TGTGGCAA", "PBM E-score": -0.0312}, {"sequence": "CATGGGAG", "PBM E-score": -0.0675}, {"sequence": "CAAGACTA", "PBM E-score": -0.0102}, {"sequence": "ACACTGAA", "PBM E-score": 0.225}, {"sequence": "GCGACAAA", "PBM E-score": -0.122}, {"sequence": "ATCTCAAA", "PBM E-score": 0.0373}]}]}
